Measured values taken from publication PMC10614829 (Proceedings of the National Academy of Sciences of the …, 2023).

Molecular target: dually phosphorylated ERK2 on Tyr185 and Thr183 (ERK2-pTpY), purified (rat, UniProt P63086, phosphothreonine 183, phosphotyrosine 185)
Assay: cell-based or functional assay

B1: β-arrestin 2 (purified, free basal state) (natural protein)
chain: not shown
  ERK2-pTpY activity towards MBP, real-time fluorescence-based in vitro kinase assay; fold enhancement of the initial rate over no βarr control: ~5 fold over control
